Hit rate of the full screen: of about 340,000 compounds, about 12,000 (3.5%) were called active. Inconclusive results, whose numbers are uncertain, are shown with a selection of clear calls. Calls come from the whole dose curve; as a rule, active = well fitted inhibition curve with a large enough effect; inconclusive = small, poorly fitted or top-dose-only effect, or another doubt; inactive = no such curve, though single readings can be large or run the other way. No potency is given beside an inconclusive call; the fits are too rough.
Experiment: qHTS Assay for Inhibitors of Hepatitis C Virus (HCV)
Settings: Huh7.5.1 HCVcc-Cre (HCVcc is cell-culture hepatitis C virus) infection, luciferase reporter, 44 h; series mostly up to 41.8 µM
Procedure, shortened: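 Infectious HCV cell culture screen: compound-treated cells (1,000/well, pre-plated 4 h) are infected with HCVcc-Cre at roughly 0.5 moi and grown 44 h. Infection is quantified by luciferase signal after 15 min substrate incubation at room temperature.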
For `CC(C)(C)C(=O)Cn1ncc(Cl)c(Cl)c1=O`, the Potency was inconclusive [inhibitor, full curve]. For `O=C(OCCOCCN=C1NS(=O)(=O)c2ccccc21)c1ccc(F)cc1`, the Potency was “inactive”. In the case of `CN(C)S(=O)(=O)n1cc(/C=C(\NC(=O)c2ccccc2)C(=O)N2CCCC2)c2ccccc21`, the Potency is reported as inconclusive [inhibitor, single point]. For `O=C(CCC(=O)N(CC(=O)NC1CCCC1)Cc1cccs1)Nc1nccs1`, the Potency was “inactive”. With `Cc1nn(-c2ccc(F)cc2)c(Cl)c1/C=C(\CCC(=O)O)c1nc2ccccc2s1` the Potency was “inactive”. For `CCOC(=O)c1sc(NC(=O)CSc2nc(-c3ccco3)cc(C(F)(F)F)n2)c(C(=O)OC)c1C`, the Potency was inconclusive [inhibitor, full curve]. With `O=C(Cc1cccs1)Nc1nc(-c2ccc(F)c(F)c2)cs1` the Potency was inconclusive [inhibitor, single point]. With `CCc1ccc(NC(=O)CSc2nc(=O)n(CCCN(C)C)c3c2CCC3)cc1` the Potency was inconclusive [inhibitor, partial curve]. In the case of `Cc1nn2c(C)c(C(=O)Nc3ccccc3)cnc2c1C#N`, the Potency is reported as inconclusive [inhibitor, single point]. For `COc1ccc(S(=O)(=O)N2CCCC2CNC(=O)C(=O)NCc2ccco2)cc1` (stereo not given), the Potency was “inactive”. With `COc1ccc2c(c1)CC/C(=C\c1ccc(OC)c(Cn3nc(C)cc3C)c1)C2=O` the Potency was active: 3.98 µM. With `CCN(CC)c1ccc(/C=N/NC(=O)c2ccco2)c(O)c1` the Potency was inconclusive [inhibitor, full curve]. In the case of `CC1Cc2ccccc2N1S(=O)(=O)c1cccc(C(=O)NCCCn2ccnc2)c1` (stereo not given), the Potency is reported as “inactive”. With `CCOc1ccc(CCNC(=O)CCC(=O)N2CCOc3ccccc32)cc1OCC` the Potency was inconclusive [inhibitor, partial curve]. With `CC1CCCCN1CCNC(=O)CN1C(=O)CSc2ccc(S(=O)(=O)N3CCCCC3)cc21` (stereo not given) the Potency was inconclusive [inhibitor, partial curve]. For `CC(C)(CN1CCc2ccccc2C1)NS(=O)(=O)c1ccc(Cl)cc1`, the Potency was inconclusive [inhibitor, single point]. With `C=CCSC(=S)NC1CCS(=O)(=O)C1` (stereo not given) the Potency was “inactive”. In the case of `Cc1cc(C)cc(N(CC(=O)NC2CCCCCC2)S(=O)(=O)c2c(C)[nH]c(=O)[nH]c2=O)c1`, the Potency is reported as inconclusive [inhibitor, single point]. For `N#Cc1cc(Sc2ccccn2)c([N+](=O)[O-])cc1C#N`, the Potency was “inactive”. For `O=C(NNc1nc2cc3c(cc2s1)OCO3)c1ccccc1`, the Potency was “inactive”.
Potency is the fitted concentration of half-maximal effect; tags give direction and shape of the fitted curve.
